PubChem BioAssay AID624202 (National Center for Advancing Translational Sciences (NCATS), 2012)
About 4,000 (1.1%) of roughly 380,000 compounds were called active. The shares of active, inactive and inconclusive entries below differ from those in the screen. Calls follow the shape of the dose curve; as a rule, active = well fitted activation curve with a large enough effect; inconclusive = small, poorly fitted or top-dose-only effect; inactive = no such curve, though single readings can be large or run the other way. Where the call is inconclusive, the potency comes from a doubtful curve fit.

Test: qHTS Assay to Identify Small Molecule Activators of BRCA1 Expression; also: nearly all actives have a fitted effect of over 80% in size
Settings: MCF7-BRCA1-FFLuc reporter, luminescence, 48 h; activation: at 46.1 µM (top of the series), scaled: vehicle 0%, 10 µM genistein 100% unless noted
From the text: Functionally, BRCA1 has been implicated in a wide array of cellular activities, including DNA damage repair, cell-cycle checkpoint control, growth inhibition, apoptosis, transcriptional regulation, chromatin remodeling, protein ubiquitylation, and mammary stem cell self-renewal and differentiation. Reduction in BRCA1 levels is associated with an increase in tumor growth and resistance to anti-estrogenic agents, such as tamoxifen, while an increase in BRCA1 expression leads to cell growth arrest and apoptosis. […] The frequent loss of BRCA1 expression in invasive breast cancers in the absence of somatic mutation has been attributed to numerous mechanisms, including hypermethylation of the BRCA1 promoter, exaggerated ubiquitylation of BRCA1 protein, and improper intracellular localization. […] Basal-like breast cancers (BLBCs) are associated with an aggressive clinical course, resistance to chemotherapy, and typically lack expression of estrogen receptor (ER), progesterone receptor (PR), and epidermal growth factor receptor 2 (HER2). BLBCs account for 10-17% of all breast cancers, have few therapeutic options, and are considered the biggest unmet need in the treatment of breast cancer. Conversely, tumors which maintain expression of functional BRCA1 are almost uniformly luminal type cancers, and are accordingly associated with more indolent clinical courses, responsiveness to endocrine therapies, and improved survival.
As such, it is possible that an increase in BRCA1 expression would enable cellular differentiation and restore tumor suppressor function, resulting in delayed tumor growth and less aggressive, more treatable breast cancers. The long term goal of this proposal is to develop a novel prevention or therapeutic agent for breast cancer patients. To accomplish this goal, the overall objective of this proposal is to access the resources provided by the NIH Molecular Libraries Roadmap Initiative and the Molecular Libraries Probe Production Centers Network (MLPCN) to discover and develop new chemical activator probes that will increase BRCA1 expression and function.
NIH Molecular Libraries Probe Production Network [MLPCN]
NIH Chemical Genomics Center [NCGC]
PI Name: Lisa Harlan-Williams, University of Kansas Medical Center
5microl of MCF7-BRCA1-FFLuc cell suspension (400 cells/microl in phenol-red free MEM) are dispensed into Greiner white solid bottom 1536-well assay plates, yielding a final well density of 2000 cells/well. Plates are incubated for 2 hours at 37 degrees C in 5% humidified CO2 to allow cell attachment. Compounds are then transferred via Kalypsys pin tool equipped with 1536-pin array (10nl slotted pins, V&P Scientific, San Diego, CA). The plates are then incubated at 37 degrees C in 5% humidified CO2 for 48 hours. The NCGC in-house luciferase substrate reagent, Buglite, is then added (2.5microl) and plates incubated for 15 minutes, before being transferred to a ViewLux high-throughput CCD imager (PerkinElmer) wherein single end-point measurements of luminescence are acquired using a clear filter. The positive control compound, genistein, will be pinned into dedicated control columns on each plate, including a 16-point 1:3 titration in duplicate, as well as a 10microM maximum activation control, allowing for the normalization of screening activity. DMSO will be pinned into a separate column as a negative control.
All screening operations will be performed on a fully integrated robotic system (Kalypsys, San Diego, CA) containing one RX-130 and two RX-90 anthropomorphic robotic arms (Staubli, Duncan, SC). Library plates will be screened starting from the lowest and proceeding to the highest concentration. Vehicle-only plates, with DMSO being pin-transferred to columns 5-48, will be inserted uniformly at the beginning and the end of each library in order to monitor and record any shifts in the background, which can be affected by reagent dispensers or loss in enzyme activity over time. […]
Potency is read from the fitted curve at half-maximal effect; tags tell the direction and shape of the fitted curve.

SMILES | activation | Potency
CC(=O)c1sc2c(c1OC(=O)c1ccc(Cl)cc1Cl)c(=O)n(-c1ccccc1)c(=S)n2-c1ccccc1 | inactive: -77.3% | 
Cc1ccc(CNC(=O)CN2C(=O)NC3(CCCC3)C2=O)cc1 | inactive: -53.1% | 
C=CCn1c(-c2cccc(S(=O)(=O)N(CC)CC)c2)n[nH]c1=S | inactive: 0% | 
Cn1c(CCNC(=O)c2ccco2)nc2cc(NC(=O)c3ccccc3)ccc21 |  | inconclusive: 14.1 µM [activator, partial curve, poor fit]
CC(C)CNC(=S)NC(=O)c1ccc(Cl)cc1Cl |  | inconclusive: 7.94 µM [activator, partial curve, poor fit]
CCOC(CNC(=O)c1ccc2nc(N3CCC(C)CC3)sc2c1)OCC | inconclusive: -49% [activator] | 
c1ccc(COc2ccc(OCCOCCn3cncn3)cc2)cc1 |  | inconclusive: 1.26 µM [activator, full curve, poor fit]
CCCSc1nn2c(=O)c3ccccc3nc2s1 |  | inconclusive: 2.24 µM [activator, partial curve, poor fit]
O=C(CN1C(=O)NC(c2ccccc2)(c2ccccc2)C1=O)NC1CCS(=O)(=O)C1 (stereo not given) | inactive: -18.3% | 
CC(=O)C1C(=O)C=C(c2ccco2)CC1c1ccccc1 (stereo not given) | inactive: -8.71% | 
Cc1cc(Cl)ccc1OCC(=O)N1CCN(c2ncccn2)CC1 | inactive: 10.2% | 
COC(=O)N/N=C/c1cn(CCOc2ccccc2)c2ccccc12 | inactive: 46.7% | 
Clc1ccc(Nc2nc(C3CC3)cs2)cc1 |  | inconclusive: 12.6 µM [activator, partial curve, poor fit]
O=C(/C=C/c1ccc(-c2ccccc2)o1)c1ccccc1 |  | inconclusive: 7.94 µM [activator, partial curve, poor fit]
Cc1ccc(CN2CCN(CC(C)C)C(CCO)C2)s1 (stereo not given) |  | inconclusive: 31.6 µM [activator, single point]
CN1C(=O)/C(=C\C=C2/CCCN2C)N(C)C1=S | inactive: 63.5% | 
Cc1cccc(-n2ncc3c(Nc4ccc(F)cc4)ncnc32)c1 |  | inconclusive: 3.55 µM [activator, partial curve, poor fit]
N#C/C(=N\Nc1ccccc1)C(=N)N1CCOCC1 |  | inconclusive: 12.6 µM [activator, partial curve, poor fit]
Cc1ccc(-c2cnn(-c3cccc([N+](=O)[O-])c3)c2N)cc1 |  | active: 5.62 µM
COc1ccc(C(=O)NC(C)Cc2c[nH]c3ccccc23)cc1 (stereo not given) |  | inconclusive: 12.6 µM [activator, partial curve, poor fit]
N#Cc1c(/N=C/c2cccs2)sc2c1CCCCC2 |  | inconclusive: 3.16 µM [activator, partial curve, poor fit]
C[C@H](NC(=O)[C@@H]1CCCN1C(=O)[C@@H]1CCCN1C(=O)c1ccc(Cl)cc1)c1ccccc1 | inactive: 21.2% | 
Cc1ccc([C@H]2N[C@]3(CCCN(Cc4ccc(Br)cc4)C3=O)[C@H]3C(=O)N(C)C(=O)[C@@H]23)cc1 | inactive: -18.3% | 
CC(C)(C)c1ccc(OCc2ccc(C(=O)N/N=C/c3ccc([N+](=O)[O-])cc3)o2)cc1 |  | inconclusive: 1 µM [activator, full curve, poor fit]
O=C(NCc1ccc(Cl)cc1Cl)Nc1ccccc1 |  | inconclusive: 2.82 µM [activator, full curve, poor fit]

SMILES | activation | Potency
O=C(NCCSc1ccccc1)c1ccc(CN2CCOCC2)cc1 |  | inconclusive: 2.24 µM [activator, full curve, poor fit]
O=[N+]([O-])c1ccc(NC(=S)N/C(=N/CS(=O)(=O)c2ccccc2)c2ccccc2)cc1 |  | inconclusive: 15.8 µM [activator, single point]
O=C(NC1=NCCS1)c1ccc(Cl)c(Cl)c1 | inconclusive: 71.9% [activator] | 
COc1cccc(C(c2c(NC(=O)c3ccccc3)sc(C)c2C)N2CCN(C)CC2)c1 (stereo not given) | inactive: -43.5% | 
Clc1ccc(-c2nc(Cc3ccccc3)no2)cc1 |  | inconclusive: 12.6 µM [activator, partial curve, poor fit]
CCNc1nc(-c2cc3ccccc3o2)cs1 |  | inconclusive: 0.794 µM [activator, full curve, poor fit]
CCOc1ccc(OCc2cccc(C(=O)N3CCCCCC3)c2)cc1 | inconclusive: -72.7% [activator] | 
CCNc1ccc(/C=C2\C=Cc3ccccc32)cc1 |  | inconclusive: 6.31 µM [activator, partial curve, poor fit]
COc1ccc(CNc2nc3ccccc3n2C)c(OC)c1 |  | inconclusive: 2 µM [activator, full curve, poor fit]
O=C(/C=C/Nc1ccccc1)c1ccc(Oc2ncccn2)cc1 |  | active: 3.55 µM
COc1ccc(NC(=O)CSCC(=O)Nc2sccc2C#N)cc1 | inactive: -13% | 
CC(C)c1ccc(N2C=Nc3ccc(C(C)C)cc3C2)cc1 | inactive: -0.962% | 
Cn1c(/C(C#N)=C/c2cccc(O)c2)nc2ccccc21 |  | inconclusive: 14.1 µM [activator, partial curve, poor fit]
CC(=O)N(C)c1nnc(-c2ccccn2)s1 |  | inconclusive: 10 µM [activator, partial curve, poor fit]
Cc1cc(C(C)(C)C)ccc1NC(=O)CC(C)(C)CC(=O)O |  | active: 12.6 µM
O=C(CC(NC(=O)OCc1ccccc1)c1nn[nH]n1)OCc1ccccc1 (stereo not given) | inconclusive: 90.2% [activator] | 
Cc1ccc(C(=O)N(CCN2CCCCC2)CC2CCCN(C3CCCC3)C2)s1 (stereo not given) | inactive: 2.09% | 
Cc1cc(OCc2cc(C(=O)N(C)C3CCOCC3)no2)cc(C)c1Cl |  | inconclusive: 6.31 µM [activator, partial curve, poor fit]
CCSc1nnc(NC(=O)C(C)(C)C)s1 |  | inconclusive: 22.4 µM [activator, single point]
CCCC(=O)n1nc(-c2ccco2)nc1SCc1ccccc1 |  | inconclusive: 10 µM [activator, single point]
N/C(=N\OC(=O)c1ccccc1)c1ccccn1 | inactive: -53.5% | 
CCc1ccccc1Nc1nc(-c2cccnc2)cs1 |  | inconclusive: 14.1 µM [activator, single point]
COc1c(C)cccc1C(=O)Nc1ccc(N2CCN(S(C)(=O)=O)CC2)cc1 |  | active: 3.55 µM
CNc1nnc(-c2cc3cc(Cl)ccc3oc2=O)s1 |  | active: 10 µM
O=C(Nc1ccc(Cl)c(Cl)c1)N1CC=CCC1 |  | inconclusive: 2.51 µM [activator, full curve, poor fit]

SMILES | activation | Potency
Cc1ccc(C(=O)NNC(=O)c2ccc(C)cc2)cc1 |  | inconclusive: 11.2 µM [activator, partial curve, poor fit]
CCN(CC)C(=O)CCCSc1nnc(Nc2ccccc2F)s1 |  | active: 4.47 µM
O=C(Cc1ccccc1)c1ccc2c(c1)OCCO2 |  | inconclusive: 12.6 µM [activator, partial curve, poor fit]
O=C(NC1CC1)c1sc2cc(Cl)ccc2c1Cl |  | inconclusive: 10 µM [activator, partial curve, poor fit]
Cc1ccc(Nc2nc(N)c3ccccc3n2)cc1C |  | inconclusive: 0.501 µM [activator, full curve, poor fit]
Cc1ccc(NC(=O)CC(=O)c2ccccc2)cc1C |  | active: 6.31 µM
O=C(Nc1cccc2ccccc12)N1N=CCC1c1ccccc1 (stereo not given) |  | inconclusive: 11.2 µM [activator, partial curve, poor fit]
Cc1nn(-c2nnc(NC3CCCCC3)nn2)c(C)c1Br |  | inconclusive: 1.58 µM [activator, full curve, poor fit]
Cc1cc(-c2ccc(Cl)s2)n[nH]1 |  | inconclusive: 14.1 µM [activator, partial curve, poor fit]
O=C(Nc1ccc(F)cc1F)c1ccc2ncsc2c1 |  | active: 5.01 µM
c1ccc(-n2nnc(-c3nccs3)n2)cc1 |  | active: 2.82 µM
C/C(=N\NC(=O)c1csc(C)c1C)c1ccc(C)s1 |  | active: 10 µM
N/C(=N\O)c1ccc(N2CCN(c3ncccc3C(F)(F)F)CC2)nc1 |  | active: 3.55 µM
CCCCc1ccc(NC(=O)C2CCCO2)cc1 (stereo not given) |  | active: 1.41 µM
O=C(Nc1nc2c(F)cccc2s1)c1ccc2c(c1)OCCO2 | inconclusive: -33.4% [activator] | 
CCN1CCN(c2ccc(NC(=O)c3ccccc3F)cc2Cl)CC1 |  | active: 7.08 µM
O=C(NCc1ccccc1)c1cc2ccc(O)cc2oc1=O |  | inconclusive: 15.8 µM [activator, single point]
O=C(NCc1ccco1)c1sc2ccccc2c1Cl |  | inconclusive: 11.2 µM [activator, partial curve, poor fit]
CCOC(=O)c1ccc(NC(=O)CN(C)S(=O)(=O)c2ccc(Br)s2)cc1 | inactive: -1.29% | 
c1ccc(OCc2cc(-c3ccccc3)no2)cc1 |  | active: 5.01 µM
CN(C)c1ccc(/C=C2\c3ccccc3-c3ccc(N(C)C)cc32)cc1 | inactive: -7.5% | 
Nc1c(-c2ccc(Cl)cc2)cnc2c(-c3ccccc3)cnn12 |  | inconclusive: 0.316 µM [activator, full curve, poor fit]
CCCCNC(=O)c1cc(-c2ccc3c(c2)OCO3)on1 |  | inconclusive: 2.51 µM [activator, full curve, poor fit]
O=C1NCCN/C1=C\C(=O)c1ccc(Cl)cc1 |  | inconclusive: 1.78 µM [activator, full curve, poor fit]
O=C(O)c1cccc(NC(=S)N/N=C/c2ccccc2OCc2ccc(Br)cc2)c1 |  | inconclusive: 15.8 µM [activator, partial curve, poor fit]
